# Measurements published in the supplement of paper PMC4166925.
# ± gives the standard deviation of the averaged measurements. In all, about 33,000 sequences were measured (“E-score (dimensionless, -0.5 to 0.5)”: median about -0.049, highest 2% from about 0.37 on). This is one part of the list.
# System: T1, PmTbr T-box DNA-binding domain (GST fusion)
# T1 sequence: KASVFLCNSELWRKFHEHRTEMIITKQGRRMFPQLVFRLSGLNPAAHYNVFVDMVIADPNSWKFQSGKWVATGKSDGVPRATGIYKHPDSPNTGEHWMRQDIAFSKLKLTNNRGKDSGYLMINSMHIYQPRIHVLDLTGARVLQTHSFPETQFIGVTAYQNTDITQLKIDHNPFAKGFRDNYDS
# Assay: PBM E-score of 8-mer (E-score (dimensionless, -0.5 to 0.5)); Tbr is Tbrain of the sea star Patiria miniata (Pm) or the sea urchin Strongylocentrotus purpuratus (Sp); higher = stronger binding preference; most listed sequences are background and not binding sites
# Conditions: the construct has about 5 more residues each side
# Method in brief: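 Primer extension turned Universal Agilent oligonucleotide arrays double-stranded. They were incubated with 200 nM protein in PBS (pH 7.5); the protein was a GST-fused Tbr T-box DNA-binding domain expressed in BL21 E. coli at 20 °C and purified on glutathione. Every ungapped 8-mer was scored from the scanned, quantified probe intensities, and the Universal PBM Analysis Suite gave each an enrichment E-score averaged over duplicate arrays.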
row,Sequence,PBM E-score of 8-mer
1,CAGTCCTA,-0.134 ± 0.029
2,ACCGGACT,-0.277 ± 0.035
3,CAGCGATG,0.0886 ± 0.0054
4,GAGTTGAC,0.155 ± 0.052
5,GAGCCAAC,-0.0524 ± 0.01
6,CATCAGAA,-0.195 ± 0.025
7,AGGGCTGC,-0.224 ± 0.054
8,GAAACCCC,-0.137 ± 0.076
9,GGGTTTGA,-0.086 ± 0.051
10,ATTTCGGA,-0.17 ± 0.027
11,GTGTGTCA,0.348 ± 0.02
12,GGACACGA,-0.0508 ± 0.0053
13,ATAACAAT,0.0445 ± 0.058
14,ACCCCCAC,-0.211 ± 0.013
15,TAAGGGGA,-0.118 ± 0.062
16,ATCATCGG,-0.00423 ± 0.0083
17,AGAGTCAT,-0.298 ± 0.046
18,GCGCGTTA,0.238 ± 0.0084
19,AGCGTCAA,0.258 ± 0.0039
20,ACTTCGAA,0.021 ± 0.047
21,ATTGACGC,0.263 ± 0.0065
22,CAGTATCC,-0.131 ± 0.1
23,CGGATAAC,-0.166 ± 0.025
24,GAACCGAC,0.0435 ± 0.047
25,GGGCGCAC,-0.164 ± 0.092

row,Sequence,PBM E-score of 8-mer
1,CTCCCTAC,-0.223 ± 0.026
2,CGTGGTCA,0.138 ± 0.057
3,ATAAAATG,-0.0255 ± 0.13
4,ACTCTGGC,-0.0256 ± 0.038
5,AATATTAC,-0.0828 ± 0.013
6,AGCGGGAT,-0.246 ± 0.072
7,AAGGACCA,-0.265 ± 0.027
8,ATATCGCA,0.234 ± 0.055
9,GATATGGC,-0.171 ± 0.056
10,ATTTCATG,-0.162 ± 0.02
11,ATTGAGTA,-0.0133 ± 0.042
12,CCGGGAGG,-0.00899 ± 0.027
13,CGAAATGA,0.108 ± 0.024
14,CAGAAGGC,0.226 ± 0.0031
15,CTGTTGGA,0.0599 ± 0.038
16,AGACAGAA,-0.132 ± 0.01
17,GGAGACTA,-0.272 ± 0.0049
18,ACAGATGG,-0.119 ± 0.0064
19,ACACGTGT,0.403 ± 0.023
20,AGGATGAC,0.00519 ± 0.064
21,ATGGTCGA,0.00263 ± 0.016
22,GAACGTCA,-0.0912 ± 0.074
23,GGAAGAGA,-0.242 ± 0.011
24,CCGCCAGC,-0.027 ± 0.032
25,CGGTATTA,0.0344 ± 0.031

row,Sequence,PBM E-score of 8-mer
1,GGCCCTTA,-0.136 ± 0.0076
2,ACGTAATA,-0.234 ± 0.071
3,GCAACTCA,-0.00367 ± 0.039
4,AGGGTTCC,-0.201 ± 0.02
5,ACAATAAC,0.039 ± 0.0053
6,CCGGCGAC,0.103 ± 0.028
7,CTGAAGCA,-0.0689 ± 0.037
8,ACAAAAGG,0.0222 ± 0.03
9,CTACCCAG,-0.253 ± 0.11
10,CCGCATCC,-0.248 ± 0.036
11,TAGCCTGA,-0.267 ± 0.0082
12,CACTTAGG,0.237 ± 0.037
13,ATTATAGA,-0.0847 ± 0.018
14,CTCTTCGC,0.166 ± 0.034
15,CAGGGGAG,-0.205 ± 0.022
16,CGGTTACG,-0.0731 ± 0.03
17,ACTTGCCA,0.345 ± 0.026
18,CTCATAGC,0.0707 ± 0.0017
19,ATGTGAGG,0.215 ± 0.026
20,AGGGGGAT,-0.295 ± 0.042
21,GAATTTTA,0.00455 ± 0.1
22,ACTAGAAC,-0.0795 ± 0.023
23,ATTTATTC,0.0139 ± 0.033
24,GATCGATA,0.132 ± 0.00066
25,GGTACATA,-0.237 ± 0.0099

row,Sequence,PBM E-score of 8-mer
1,GAAAACGC,0.0175 ± 0.061
2,CCACAGAA,0.145 ± 0.022
3,AATCGCAC,0.381 ± 0.0051
4,AACACGAT,0.291 ± 0.018
5,ATTGGGTA,-0.217 ± 0.03
6,GTTTATCA,0.134 ± 0.024
7,ACGCGTTA,0.287 ± 0.0029
8,ACGAGTTG,0.232 ± 0.063
9,GGAATGCA,-0.386 ± 0.0072
10,AGAGACTG,-0.154 ± 0.069
11,AGTTAGAT,-0.182 ± 0.053
12,ACCGAGCA,-0.115 ± 0.025
13,ACTCGCCA,0.144 ± 0.015
14,ATCACCGC,0.0207 ± 0.061
15,AACCTCGG,-0.124 ± 0.033
16,GGTTAGAC,-0.149 ± 0.05
17,CTTAGAAA,-0.172 ± 0.047
18,CGCGCGGA,0.131 ± 0.022
19,CTCGCCTC,0.214 ± 0.011
20,CTGGATAC,-0.217 ± 0.026
21,CTGCTCGC,0.143 ± 0.053
22,ATTCTGCC,-0.0609 ± 0.023
23,TAGCAGGA,-0.0117 ± 0.03
24,AAGTTCTG,-0.122 ± 0.051
25,CAGAGACC,-0.298 ± 0.017

row,Sequence,PBM E-score of 8-mer
1,AATAGAAG,-0.0725 ± 0.084
2,GGGCGAAA,-0.0293 ± 0.016
3,AACATGAT,-0.0409 ± 0.098
4,CACGAACC,-0.138 ± 0.035
5,AAACACAC,0.228 ± 0.019
6,AAGCGATC,-0.194 ± 0.07
7,TAATCCTA,-0.263 ± 0.035
8,ACCTACAT,0.0341 ± 0.036
9,CGCAAGAG,0.023 ± 0.076
10,GGGGCTAC,-0.175 ± 0.0064
11,ACGGTACT,-0.18 ± 0.035
12,GGATAGAC,-0.145 ± 0.034
13,CATCAACG,-0.0231 ± 0.035
14,ACATCACT,0.0297 ± 0.063
15,GATAGGAC,-0.147 ± 0.043
16,GGGTTAGA,-0.127 ± 0.06
17,ACGACATG,0.148 ± 0.006
18,TGGTACCA,-0.00478 ± 0.035
19,CAGCAATC,-0.21244 ± 7.8e-05
20,AAAACCCG,0.0798 ± 0.023
21,CTATTCAC,0.223 ± 0.021
22,CAAGAAGA,-0.216 ± 0.073
23,AAGAGTGT,0.289 ± 0.055
24,GCATTACA,-0.124 ± 0.0066
25,CAAAAACC,0.125 ± 0.029

row,Sequence,PBM E-score of 8-mer
1,GCTGGGGA,0.0708 ± 0.047
2,CTCGCACA,0.375 ± 0.0071
3,CTGACAGC,0.289 ± 0.011
4,CCAAAGTC,-0.0848 ± 0.056
5,CGTTTTGC,0.033 ± 0.047
6,ATGTGTCC,0.0956 ± 0.026
7,GGCTGGAA,-0.127 ± 0.064
8,AACTAAGT,-0.031 ± 0.0083
9,GGCCAAGA,-0.262 ± 0.038
10,CGTGAGAG,0.265 ± 0.0088
11,CCCTGCAG,-0.131 ± 0.044
12,CCTTCACG,0.213 ± 0.0063
13,CTCGATGC,-0.0685 ± 0.13
14,GGCTACTA,-0.0699 ± 0.1
15,ACGATCAT,-0.0267 ± 0.016
16,CATCCCAA,-0.0903 ± 0.063
17,CAGACAGA,-0.0984 ± 0.023
18,GGTACGAC,-0.0493 ± 0.042
19,CACTCCGC,0.0683 ± 0.039
20,GCACTCCA,0.124 ± 0.03
21,ACTTTCAG,0.0962 ± 0.033
22,GCCGAGAC,-0.197 ± 0.011
23,CATATCTC,0.0249 ± 0.039
24,AAGTACGT,-0.0204 ± 0.035
25,CGGGATCA,-0.0485 ± 0.045

row,Sequence,PBM E-score of 8-mer
1,ATCGCTTG,-0.145 ± 0.086
2,AGCCCAAT,-0.213 ± 0.048
3,GTCGGCAC,0.1802 ± 0.00045
4,ACGAATGC,0.0243 ± 0.00054
5,CCACTGGG,-0.0864 ± 0.036
6,CCTTTGTA,0.0138 ± 0.0078
7,AGGCAATC,-0.27 ± 0.097
8,ACTTTTCA,0.211 ± 0.055
9,AGCACACG,-0.0163 ± 0.042
10,AAAATAAC,0.141 ± 0.037
11,CACGTGAA,0.176 ± 0.044
12,CGGACATC,-0.286 ± 0.039
13,CGCCGAAA,-0.0346 ± 0.031
14,TATGGAAA,-0.0651 ± 0.021
15,CAGGGTAA,-0.223 ± 0.0064
16,CCTACTAG,0.0677 ± 0.014
17,CAGGATCA,-0.0925 ± 0.02
18,CGCGGACC,0.0878 ± 0.041
19,AGTGGATC,-0.236 ± 0.0081
20,ATATGGCG,-0.0702 ± 0.039
21,GGTCAAGA,-0.151 ± 0.057
22,AACATTCG,-0.197 ± 0.0051
